This passage reports survival results from PubChem BioAssay AID463173 (ICCB-Longwood Screening Facility, Harvard Medical School, 2010).

Out of some 52,000 compounds screened, about 4,300 (8.3%) were called active. No stated cut-off is given here; in the data, active means survival mostly below about 52% (no sharp cut-off); inactive means mostly above about 56%. Some of the results follow.

This assay concerns DeltatarO mutant. In words: growth inhibition of S. aureus wild type versus tarO mutant, primary screen, teichoic acid synthesis inhibitors, RN4220, OD600 (AID 463173). Conditions: OD600, 18 h, active compounds read low, screened at 18.75 µg/mL (by protocol).
Consider `COc1cccc(CNC(=O)CCn2cccn2)c1`, for which the survival was inactive: 86%.

Take `CCOC(=O)c1c(-c2ccc(OC)cc2)oc2ccc(OCc3ccc(C(=O)OC)cc3)cc12`: the survival was inactive: 48%.

As for `NCCNC(=O)c1ccco1`, the survival is inactive: 99%.

Regarding `CCNc1c(NC(=O)c2cc(OCC)c(OCC)c(OCC)c2)c(=O)oc2ccccc12`, the survival was inactive: 98%.

On to `CC(C)(C)C(=O)Nc1cccc(C(=O)OCc2cc(=O)n3nc(C4CCCCC4)sc3n2)c1`, for which the survival was inactive: 124%.

With `O=C(CSc1nc2ccccc2n1Cc1ccccc1Cl)NCc1ccccc1`, the survival was inactive: 96%.

For the molecule `N#C/C(=C\c1ccc(-c2cc(Cl)ccc2Cl)o1)C(=O)Nc1ccccc1C(=O)O`, the survival is active: 37%.

As to `CCCCN(C)CCNC(=O)c1nn(-c2ccc(OC)cc2)c(=O)c2c1c1ccccc1n2C`, the survival was inactive: 105%.

Take `CCOC(=O)c1[nH]cnc1C(=O)Nc1ccc(F)cc1`: the survival was inactive: 64%.

Regarding `COc1cccc(CNC(=O)CCNS(=O)(=O)c2ccc3c(c2)oc(=O)n3C)c1`, the survival was inactive: 93%.

Regarding `Cc1cc(C)c(Cn2c(C(O)c3ccccc3)nc3ccccc32)c(C)c1` (stereo unspecified), the survival was active: 31%.

As to `CCC(=O)N1CCc2cc(Br)cc(S(=O)(=O)NCCc3ccccc3)c21`, the survival was active: 43%.

For `CCOC(=O)c1c(NC(=O)COc2ccc(F)cc2)sc2c1CCC(C)C2` (stereo unspecified), the survival is inactive: 70%.

Regarding `CCc1cc(C=Nc2ccccc2)c(O)s1`, the survival is inactive: 98%.

Consider `O=C(NCCCN1CCN(c2ccccc2F)CC1)c1nnc(Cc2ccc(Cl)cc2Cl)o1`, for which the survival was inactive: 80%.

In the case of `COc1cccc(C(=O)Nc2ccc(NC(=O)c3ccc(C(C)(C)C)cc3)cc2)c1`, the survival was inactive: 105%.

Regarding `COC(=O)C(CCSC)NC(=O)c1cc2c(n(-c3ccc(OC)cc3)c1=O)CC(C)(C)CC2=O` (stereo unspecified), the survival was inactive: 71%.

In the case of `COc1ccc(S(=O)(=O)Nc2cccc(-c3ccc(N4CCCCCC4)nn3)c2)c(OC)c1`, the survival was inactive: 74%.

With `COc1cccc2c1Oc1ncccc1N(c1ccc(C(=O)NCc3cccc(C)c3)s1)C2`, the survival was inactive: 80%.

`CC1(C(=O)Nc2ncc(Cc3ccc(Br)cc3)s2)Cc2ccccc2C(=O)O1` (stereo unspecified): the survival was inactive: 113%.

As to `Cc1ccc(N2CC(NC(=O)C3CCCCC3)CC2=O)cc1C` (stereo unspecified), the survival is inactive: 102%.

For the molecule `CCOC(=O)CC(N)c1ccc2c(c1)OCO2` (stereo unspecified), the survival was inactive: 73%.

`CCc1ccccc1Nc1nn2c(=O)c3ccc(C(=O)NC4CCCCC4)cc3nc2s1`: the survival was inactive: 75%.

`CCOC(=O)c1c(N)n(-c2cccc(C)c2C)c2nc3ccccc3nc12`: the survival was inactive: 67%.

Regarding `Cc1ccn2c(=O)c(C(=O)NCc3ccccc3Cl)c(O)nc2c1`, the survival is inactive: 81%.

On to `COc1cc(OC)c(NC(=O)c2c3c(nn2C)-c2ccccc2SC3)cc1Cl`, for which the survival was inactive: 114%.

`CC(=O)N1CCN(c2nc(N3CCCCC3)nc(N3CCCCC3)n2)CC1`: the survival is inactive: 79%.

Consider `Cc1ccc(-n2ncc(C(=O)Nc3c(Cl)cccc3Cl)c2C2CCNCC2)cc1`, for which the survival is inactive: 131%.

In the case of `Cc1nn(-c2ccccc2)c2sc(C(=O)Nc3cccc(O)c3)cc12`, the survival was active: 5%.

In the case of `Cc1ccc(-c2nc(CS(=O)(=O)CC(=O)Nc3cc(C)ccc3C)c(C)o2)cc1`, the survival was inactive: 122%.

As for `Cn1c(=O)cc(OCC(=O)NCc2ccc(F)cc2Cl)c2ccccc21`, the survival was inactive: 126%.

For the molecule `Cc1csc2nc(COc3ccccc3NC(=O)c3ccccc3Cl)cc(=O)n12`, the survival is inactive: 77%.

Consider `COc1cc(CN(C(=O)COc2ccc(Cl)c(C)c2)c2ccccn2)cc(OC)c1OC`, for which the survival is inactive: 62%.

Turning to `CCC(C)NC(=O)c1ccc2nc(Cc3ccccc3)oc2c1` (stereo unspecified), the survival is inactive: 102%.

In the case of `COc1ccc(-c2nc3scc(CCNC(=O)Cc4ccc(F)cc4)n3n2)cc1`, the survival was inactive: 95%.

Regarding `O=C(Nc1cc(Cl)cc(Cl)c1)c1ccc(F)c(S(=O)(=O)NCc2ccccc2Cl)c1`, the survival is inactive: 93%.

With `CCN(c1ccccc1)S(=O)(=O)c1nnc(NC(=O)c2ccco2)s1`, the survival was active: 39%.

As to `CCOc1ccc(NS(=O)(=O)c2ccc3nc(-c4ccccc4)[nH]c3c2)cc1`, the survival is inactive: 64%.

In the case of `Cc1cccc(-c2nc(CSCC(=O)N3CCN(c4cccc(C)c4C)CC3)c(C)o2)c1`, the survival was active: 8%.

As to `Cc1ccc(C)c(N2CCN(S(=O)(=O)c3cc(C(=O)Nc4cc(Cl)cc(Cl)c4)ccc3F)CC2)c1`, the survival was inactive: 87%.

As for `O=C(CSc1nc(-c2cccs2)nc2cc(=O)[nH]n12)Nc1ccccc1Cl`, the survival was inactive: 76%.

With `COc1cc(C2CC(=O)Nc3c2c(C)nn3-c2nncc(-c3ccccc3)n2)cc(OC)c1OC` (stereo unspecified), the survival is inactive: 56%.

Consider `O=C(Nc1ccccc1Cl)c1cc2c(-c3ccccc3)nn(-c3ccccc3)c2s1`, for which the survival is inactive: 56%.

Turning to `CC(=O)Nc1nnc(SCC(=O)N2C(C)CCCC2C)s1` (stereo unspecified), the survival is inactive: 54%.

`Cc1ccc2nc(-c3ccc(Cl)c(NC(=O)c4ccc(Br)o4)c3)oc2c1`: the survival is inactive: 48%.

Consider `CSc1nc2c([nH]c3ccccc32)c(=O)n1-c1ccc(C)cc1`, for which the survival is inactive: 87%.

In the case of `CSc1ccc(CCNC(=O)c2ccc(CS(=O)Cc3ccc(Cl)cc3)o2)cc1` (stereo unspecified), the survival was inactive: 63%.

For the molecule `CCC(=O)Nc1cc2c(cc1C(=O)CC)OCCO2`, the survival is inactive: 106%.

Regarding `C=CCn1c(=O)[nH]c2c1c(=O)n(C)c(=O)n2C`, the survival was inactive: 80%.

For `CC(=O)N1N=C(c2ccc(C)cc2)CC1c1cn(-c2ccccc2)nc1-c1cccs1` (stereo unspecified), the survival is inactive: 140%.

`CSc1ccc(CCNC(=O)c2ccc(-n3c(C)cc4c3CCCC4)cc2)cc1`: the survival is inactive: 71%.

Consider `O=C(OCc1cc(=O)n2nc(-c3cccs3)sc2n1)c1ccc(F)cc1`, for which the survival was inactive: 84%.

For `COc1ccc(Nc2ncc3c(n2)CCN(Cc2ccc(Br)s2)C3)c(OC)c1`, the survival was inactive: 122%.

Consider `Cc1ccc2nc3c(cc(C#N)c(=O)n3-c3nnc(SCc4ccccc4Cl)s3)c(=O)n2c1`, for which the survival is inactive: 89%.

Take `COc1ccc(/C=C/c2nc(C#N)c(N3CCC(C)CC3)o2)cc1OC`: the survival was inactive: 81%.

On to `CCOc1ccc(CNS(=O)(=O)c2ccc(-c3cc(C(F)(F)F)on3)s2)cc1`, for which the survival is inactive: 76%.

Consider `Cc1ccc2nc3sc(C(N)=O)c(N)c3cc2c1`, for which the survival was inactive: 54%.

For the molecule `CCOC(=O)c1ccc(NC(=O)C2CCN(S(=O)(=O)c3ccc(C)cc3)CC2)cc1`, the survival was inactive: 61%.

On to `Cc1cccc(/C=N/NC(=O)c2ccccn2)c1O`, for which the survival was active: 5%.

As to `COc1ccccc1CNC(=O)CS(=O)Cc1nc(-c2ccc(OC)c(OC)c2)oc1C` (stereo unspecified), the survival is inactive: 127%.

On to `CC(=O)c1nn(-c2ccc(OC(F)(F)F)cc2)nc1Nc1ccc(C)cc1`, for which the survival was inactive: 89%.

For `CCC1CN(C(=O)N2CCC(C(=O)O)CC2)c2cc(C)ccc2O1` (stereo unspecified), the survival is inactive: 71%.

Turning to `Cc1ccc(CCNC(=O)c2ccc(CSCc3ccccc3C)o2)cc1`, the survival is active: 32%.

As for `COc1ccc(Nc2cc(C)c3cc(NC(=O)Cc4c(F)cccc4Cl)ccc3n2)cc1`, the survival was inactive: 75%.

On to `CCN(Cc1ccccc1)C(=O)C1CCN(S(=O)(=O)c2c(C)noc2/C=C/c2ccc(C)cc2)CC1`, for which the survival was inactive: 97%.

Regarding `C=CCn1c(CCc2ccc(OC(C)C)cc2)n[nH]c1=S`, the survival is inactive: 71%.

Consider `Cc1ccc2nc(-c3ccc(NC(=O)COc4ccc(Cl)c(C)c4)cc3)sc2c1`, for which the survival was inactive: 74%.

For `COc1ccc(S(=O)(=O)N2CCN(c3cccc(Cl)c3C)CC2)cc1OC`, the survival is inactive: 83%.

On to `CC(Sc1nnc(C2CCCCC2)n1-c1cccc(Cl)c1)C(=O)O` (stereo unspecified), for which the survival is inactive: 110%.

For `Cc1ccc(C)c(N2CCN(C(=O)c3ccc4[nH]c(C)c(C)c4c3)CC2)c1`, the survival was inactive: 80%.

In the case of `Cc1ccccc1-c1nnc(SCC(=O)N2c3ccccc3Sc3ccccc32)o1`, the survival is inactive: 86%.

`CCn1c(SCc2ccccc2F)nc(=O)c2c(C(=O)OC)cc(C3CC3)nc21`: the survival was active: 52%.

`Fc1ccc(C(c2nnnn2C2CCCC2)N(Cc2ccccc2)Cc2ccco2)cc1` (stereo unspecified): the survival is inactive: 68%.

For `CCCNc1ccc(-c2nc(-c3ccncc3)no2)cc1[N+](=O)[O-]`, the survival was inactive: 72%.

For `CCOc1ccc(Cl)cc1C1CC(=O)Nc2cc(OC)c(OC)c(OC)c21` (stereo unspecified), the survival is inactive: 103%.

As for `Cc1cccc(N2CCN(C(=O)c3ccc(NC(=O)c4nsc5ccccc45)cc3)CC2C)c1` (stereo unspecified), the survival was inactive: 70%.

As for `O=C(NCc1ccncc1)C1CCN(S(=O)(=O)c2ccccc2)CC1`, the survival was inactive: 89%.

Turning to `Cc1ccc(NC(=O)CN2C(=O)CCc3cc(S(=O)(=O)N4CCCCC4)ccc32)cc1N(C)C`, the survival is inactive: 80%.

For the molecule `CC1CN(C(=O)N2CCC(C(=O)NCc3ccco3)CC2)c2cc(Cl)ccc2O1` (stereo unspecified), the survival was inactive: 56%.

Consider `COc1ccc(NC(=O)c2cc(-c3ccccc3O)no2)cc1`, for which the survival was inactive: 69%.

Consider `O=C(CCc1ccccc1)NNc1cc(N2CCCCC2)nc(N2CCCCC2)n1`, for which the survival is inactive: 57%.

`COc1ccc2[nH]c3c(=O)n(/N=C/c4ccccc4)cnc3c2c1`: the survival is inactive: 97%.

Regarding `CCOc1ccc(NC(=O)CNS(=O)(=O)c2ccc(Br)s2)cc1`, the survival was inactive: 49%.

Turning to `O=C(CSc1nc(-c2cccs2)nc2cc(=O)[nH]n12)Nc1ccc(F)cc1`, the survival is inactive: 86%.

As to `Cc1ccc(OCc2nc(-c3ccc(C(=O)NCCc4ccc(S(N)(=O)=O)cc4)cc3)oc2C)cc1`, the survival is inactive: 83%.

Turning to `COc1ccc(CNC(=O)c2c(Nc3ccccc3C)sc(C(=O)c3ccccc3)c2N)cc1`, the survival is inactive: 96%.

For `O=C(Nc1ccc2nc(SCC(=O)N3CCCC3)sc2c1)c1ccccc1F`, the survival was inactive: 62%.

Take `COc1ccccc1CNC(=O)CN1C(=O)CCc2cc(S(=O)(=O)N3CCOCC3)ccc21`: the survival is inactive: 135%.

Take `CCc1ccc(NC(=O)CCCc2nc(-c3ccco3)no2)cc1`: the survival is inactive: 81%.

Regarding `COc1cc2[nH]c(=O)n(CCCC(=O)NCc3ccccc3)c(=O)c2cc1OC`, the survival is inactive: 137%.

On to `Cc1cc(C)c(NC(=O)CSc2ncc(S(=O)(=O)c3ccc(C(C)(C)C)cc3)c(=O)[nH]2)c(C)c1`, for which the survival was inactive: 53%.
